The values that follow come from ChEMBL document CHEMBL1201862, “PubChem BioAssay data set” (2004).

Counter-ions that a name gives are not always drawn.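 Each compound was tested at five concentrations against cells in 96-well plates for 48 hours. GI50 marks 50% less growth.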 The source made the active and inactive calls. Rule as the data show it: active = GI50 up to about 1.1 µM and inactive = higher.

In the test the test system is NCI-H322M. Kind of test: inhibition of tumour cell growth, NCI panel, 48 h.
With `CCCCCC/C=C\CCCCCCCCCc1cccc(O)c1C(=O)O` [GINKGOLIC ACID 17:1], the GI50 was inactive: > 100 µM.
Consider `CC(C)=CCC[C@](C)(O)[C@H]1CC[C@]2(C)[C@@H]1[C@H](O)C[C@@H]1[C@@]3(C)CC[C@H](O[C@@H]4O[C@H](CO)[C@@H](O)[C@H](O)[C@H]4O)C(C)(C)[C@@H]3CC[C@]12C` [GINSENOSIDE RH2], for which the GI50 is inactive: 19.5 µM.
In the case of `C[C@]12CC[C@H](O)C[C@H]1CC[C@@H]1[C@@H]2CC[C@]2(C)[C@@H](C3=CC(=O)OC3)[C@@H](O)C[C@]12O` [GITOXIGENIN] it was inactive: 1.79 µM.
`C[C@H]1O[C@@H](O[C@H]2[C@@H](O)C[C@H](O[C@H]3[C@@H](O)C[C@H](O[C@H]4CC[C@@]5(C)[C@H](CC[C@@H]6[C@@H]5CC[C@]5(C)[C@@H](C7=CC(=O)OC7)[C@@H](O)C[C@]65O)C4)O[C@@H]3C)O[C@@H]2C)C[C@H](O)[C@@H]1O` [GITOXIN]: the GI50 is active: 0.235 µM.
Regarding `CC1=C(C2=C(C)C(=O)c3c(c(C=O)c(O)c(O)c3C(C)C)C2=O)C(=O)c2c(C=O)c(O)c(O)c(C(C)C)c2C1=O` [GOSSYPOLONE], the GI50 was inactive: 2.23 µM.
On to `Cc1cc2c(C(C)C)c(O)c(O)c(C=O)c2c(O)c1-c1c(C)cc2c(C(C)C)c(O)c(O)c(C=O)c2c1O` [GOSSYPOL], for which the GI50 was inactive: 3.24 µM.
Turning to `COC1=CC(=O)C[C@@H](C)[C@]12Oc1c(Cl)c(OC)cc(OC)c1C2=O` [GRISEOFULVIN], the GI50 was inactive: 47.4 µM.
In the case of `Nc1n[nH]c(N)n1` [GUANAZOLE] it was inactive: > 10000 µM.
`Cc1cc(OC(=O)c2c(C)cc(OC(=O)c3c(C)cc(O)cc3O)cc2O)cc(O)c1C(=O)O` [GYROPHORIC ACID]: the GI50 was inactive: > 100 µM.
On to `C=C(Cl)[C@](Cl)(CBr)CC[C@@H](Br)C(C)(C)Cl` [HALOMON], for which the GI50 is inactive: 1.49 µM.
In the case of `O=C(CCCN1CCC(O)(c2ccc(Cl)cc2)CC1)c1ccc(F)cc1` [HALOPERIDOL] it was inactive: 25.1 µM; in that of `CC1=NCCc2c1[nH]c1cc(O)ccc21` [HARMALOL HYDROCHLORIDE], inactive: > 100 µM; in that of `COC(=O)C[C@](O)(CCC(C)(C)O)C(=O)O[C@@H]1C(OC)=C[C@]23CCCN2CCc2cc4c(cc2[C@H]13)OCO4` [HARRINGTONINE], active: 0.311 µM.
In the case of `C[C@@]12CCC(=O)c3coc(c31)C(=O)c1cc3c(cc12)C(=O)C=CC3=O` [HELENAQUINONE] it was inactive: > 92.3 µM; in that of `C=C1C(=O)O[C@@H]2C[C@@]3(C)CCC[C@H](C)C3=C[C@H]12` [HELENINE], inactive: 15.8 µM; in that of `COc1cc(-c2cc(=O)c3c(OC)c(OC)c(OC)c(OC)c3o2)cc(OC)c1OC` [HEPATAMETHOXYFLAVONE], inactive: 58.9 µM.
In the case of `COc1nc(N(C)C)nc2c1[n+](C)cn2C` [HETEROMINE A] it was inactive: > 100 µM; in that of `CC(=O)NCCCCCCNC(C)=O` [HEXAMETHYLENEBISACETAMIDE], inactive: 6980 µM; in that of `CCN(CC)CCNc1ccc(CO)c2sc3ccccc3c(=O)c12` [HYCANTHONE], inactive: 11.8 µM.
Consider `NS(=O)(=O)c1cc2c(cc1Cl)NCNS2(=O)=O` [HYDROCHLOROTHIAZIDE], for which the GI50 is inactive: > 100 µM.
Take `C[C@]12CCC(=O)C=C1CC[C@@H]1[C@@H]2[C@@H](O)C[C@@]2(C)[C@H]1CC[C@]2(O)C(=O)CO` [HYDROCORTISONE]: the GI50 was inactive: > 100 µM.
For the compound `CC[C@@]1(O)C(=O)OCc2c1cc1n(c2=O)Cc2cc3cc(O)ccc3nc2-1` [HYDROXYCAMPTOTHECIN], the GI50 is active: 0.107 µM.
With `NC(=O)NO` [HYDROXYUREA], the GI50 is inactive: 2110 µM.
Regarding `Cc1cc(=O)oc2cc(O)ccc12` [HYMECROMONE], the GI50 is inactive: > 100 µM.
In the case of `Cc1cc(O)no1` [HYMEXAZOL] it was inactive: > 100 µM.
Consider `C[C@H](CCC(=O)O)[C@H]1CC[C@H]2[C@@H]3[C@H](O)[C@H](O)[C@@H]4C[C@H](O)CC[C@]4(C)[C@H]3CC[C@]12C` [HYOCHOLIC ACID], for which the GI50 is inactive: > 100 µM.
In the case of `COC[C@@H]1Cc2cc(OC)c3c(c2[C@H](c2ccc(OC)c(OC)c2)[C@H]1COC)OCO3` [HYPOPHYLLANTHIN] it was inactive: > 100 µM.
For `O=P1(NCCCl)OCCCN1CCCl` (stereo not given) [IFOSFAMIDE], the GI50 is inactive: 406 µM.
In the case of `CC1=C2C(=CC(C)(C)[C@@H]2O)C(=O)[C@](C)(O)C12CC2` [ILLUDIN M], the GI50 is active: 0.0771 µM.
Consider `N=C1NC(=O)N2CC12` (stereo not given) [IMEXON], for which the GI50 was inactive: > 100 µM.
Regarding `CC(C)[C@](O)(C(=O)OCC1=CC[N+]2([O-])CC[C@@H](O)[C@@H]12)[C@H](C)O` (stereo not given in full) [INDICINE N-OXIDE], the GI50 was inactive: > 10000 µM.
Take `O=Nc1c(-c2c(O)[nH]c3ccccc23)[nH]c2ccccc12` [INDIRUBIN-3-MONOXIME]: the GI50 is inactive: 4.72 µM.
For `O[C@H]1[C@H](O)[C@@H](O)[C@H](O)[C@@H](O)[C@H]1O` [INOSITOL], the GI50 is inactive: > 1000 µM.
In the case of `CC(C)=CCC[C@@H](C)C1=CC(=O)C(C)=C(O)C1=O` [ISOPEREZONE] it was inactive: 13 µM; in that of `COc1c2ccoc2c(OC)c2oc(=O)ccc12` [ISOPIMPINELLIN], inactive: > 100 µM.
As for `C/C=C1/CN2[C@@H](C3=C[C@@H]4[C@@H]5N(C3=O)c3ccccc3[C@@]53CCN5C/C(=C/C)[C@@H]4C[C@H]53)C[C@@]34c5ccccc5N5C(=O)CC=C([C@H]1C[C@H]23)[C@H]54` [ISOSUNGUCINE], the GI50 is inactive: 6.32 µM.
For `C/C1=C\[C@H](C)C[C@H](C)OC(=O)C[C@H](c2ccc(O)cc2)NC(=O)[C@@H](Cc2c(Br)[nH]c3ccccc23)N(C)C(=O)[C@H](C)NC(=O)[C@@H](C)C1` [JASPAMIDE], the GI50 was active: 0.834 µM.
Turning to `Oc1cnc2c(O)cccc2c1` [JINEOL], the GI50 is inactive: 35.3 µM.
As for `C=C(C)[C@H]1C2=CC(C)=C(O2)[C@@H](O)[C@H](C(=C)C)CCC2=C[C@H]1OC2=O` [KALLOLIDE A], the GI50 is inactive: > 100 µM.
On to `O=C1Cc2c([nH]c3ccc(Br)cc23)-c2ccccc2N1` [KENPAULLONE], for which the GI50 is inactive: > 100 µM.
In the case of `COc1cc(CO)cc2c1[nH]c1ccccc12` [KOENOLINE] it was inactive: > 25 µM.
Regarding `CC1(C)CCC2=C(O1)c1ccccc1C(=O)C2=O` [LAPACHONE], the GI50 was active: 0.946 µM.
For the compound `C/C1=C\[C@@H](O)C(=O)/C=C/C=C\c2csc(n2)[C@@H](C)NC(=O)C[C@@]2(CC1)[S+]([O-])SC(=O)[C@]2(C)O` (stereo not given in full) [LEINAMYCIN], the GI50 is active: 0.124 µM.
Turning to `Nc1nc(=O)c2c([nH]1)NCC(CNc1ccc(C(=O)N[C@@H](CCC(=O)O)C(=O)O)cc1)N2C=O` (stereo not given in full) [LEUCOVORIN CALCIUM], the GI50 was inactive: > 125 µM.
Take `c1ccc([C@H]2CN3CCSC3=N2)cc1` [LEVAMISOLE HYDROCHLORIDE]: the GI50 was inactive: > 100 µM.
